Measurements as given in PubChem BioAssay (NCI).
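Exposure lasted 48 hours, with cells grown in 96-well plates and compounds tested at five concentrations. GI50 is the concentration that inhibits growth by half. TGI: concentration producing complete growth inhibition.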 Activity calls are given as the source filed them. Rule as the data show it: active = GI50 below about 0.43 µM; inactive = the rest.

Legend:
Assay in all cases: growth of human tumour cells (NCI), 48 h
CCRF-CEM leukemia = system: CCRF-CEM leukemia
NCI-H23 lung = system: NCI-H23 lung
NCI-H226 lung = system: NCI-H226 lung
UACC-257 melanoma = system: UACC-257 melanoma
SR leukemia = system: SR leukemia
HOP-92 NSCLC = system: HOP-92 NSCLC

Fc1ccc(-c2ncn(C3CCNCC3)c2-c2ccnc(Oc3cccc(F)c3)n2)cc1
12.6 µM: TGI (UACC-257 melanoma)
13.3 µM: TGI (SR leukemia)
inactive: GI50 (CCRF-CEM leukemia) | GI50 (NCI-H23 lung) > 25 µM | GI50 (NCI-H226 lung) | GI50 (UACC-257 melanoma) | GI50 (SR leukemia) | GI50 (HOP-92 NSCLC)
> 25 µM: TGI (CCRF-CEM leukemia) | TGI (NCI-H23 lung) | TGI (NCI-H226 lung) | TGI (HOP-92 NSCLC)
